# In all, about 310,000 compounds went through this assay and about 2,200 (0.71%) showed an effect of 50% or more. The effect is printed as a negative number. Some of the results follow.
# Biological target: human ether-à-go-go-related gene (hERG) potassium channel (human, UniProt Q12809)
# Assay: primary screen, population patch clamp on CHO cells stably expressing hERG
# Chain of human ether-à-go-go-related gene (hERG) potassium channel (Q12809 whole entry, looked up): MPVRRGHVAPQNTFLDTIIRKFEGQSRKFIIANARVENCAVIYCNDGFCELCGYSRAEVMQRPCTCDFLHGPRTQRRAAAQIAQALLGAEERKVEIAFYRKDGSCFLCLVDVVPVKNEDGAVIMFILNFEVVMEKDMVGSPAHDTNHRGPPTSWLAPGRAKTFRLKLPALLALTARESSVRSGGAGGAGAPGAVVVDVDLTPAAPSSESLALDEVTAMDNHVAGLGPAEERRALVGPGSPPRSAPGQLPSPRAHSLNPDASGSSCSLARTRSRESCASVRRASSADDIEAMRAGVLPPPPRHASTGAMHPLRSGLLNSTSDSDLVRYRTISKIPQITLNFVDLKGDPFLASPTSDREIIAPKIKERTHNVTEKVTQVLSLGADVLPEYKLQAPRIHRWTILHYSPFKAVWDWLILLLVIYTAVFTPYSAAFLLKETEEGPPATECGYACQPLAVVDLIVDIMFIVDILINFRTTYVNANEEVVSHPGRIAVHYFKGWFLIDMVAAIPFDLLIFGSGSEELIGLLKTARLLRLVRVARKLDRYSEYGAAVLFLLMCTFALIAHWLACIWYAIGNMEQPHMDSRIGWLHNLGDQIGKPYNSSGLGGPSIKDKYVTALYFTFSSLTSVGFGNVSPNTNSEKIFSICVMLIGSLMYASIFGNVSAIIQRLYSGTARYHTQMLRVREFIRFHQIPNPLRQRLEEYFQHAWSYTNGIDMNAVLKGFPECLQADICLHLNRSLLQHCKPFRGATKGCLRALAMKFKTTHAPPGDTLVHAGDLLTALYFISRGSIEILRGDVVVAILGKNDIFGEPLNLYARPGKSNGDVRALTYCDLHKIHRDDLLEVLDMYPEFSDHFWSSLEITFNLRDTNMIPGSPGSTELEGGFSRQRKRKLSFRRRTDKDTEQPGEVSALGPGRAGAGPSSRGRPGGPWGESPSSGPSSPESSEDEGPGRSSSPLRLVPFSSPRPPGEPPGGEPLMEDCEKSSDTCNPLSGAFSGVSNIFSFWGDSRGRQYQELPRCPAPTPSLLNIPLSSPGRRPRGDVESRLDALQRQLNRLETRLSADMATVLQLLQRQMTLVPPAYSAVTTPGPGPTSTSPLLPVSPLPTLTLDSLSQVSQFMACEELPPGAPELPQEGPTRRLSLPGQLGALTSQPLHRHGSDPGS
row,Structure (SMILES),"hERG current change (%, negative = inhibition) at 1uM [%]"
1,Cn1nc(C(=O)Nc2ccc3c(c2)OCCO3)cc1C(=O)O,14.4
2,CC(=O)c1ccc(NS(=O)(=O)c2c(C)cc(C)cc2C)cc1,11.7
3,COc1cc(C2C3=C(CCCC3=O)Nc3[nH]n(-c4ccccc4)c(=O)c32)ccc1O (stereo not drawn),-0.0963
4,CC1=C(C(=O)OC(C)(C)C)C(c2cccc3ccccc23)NC(=O)N1 (stereo not drawn),7.15
5,Cc1ccccc1N(CC(=O)NCC1CCCO1)C(=O)CNS(=O)(=O)c1ccc(F)cc1 (stereo not drawn),8.68
6,Cc1cccnc1NC(=O)CCC(=O)c1cccs1,9.21
7,Cc1ccccc1N(C)C(=O)c1coc(=O)c2ccccc12,13.3
8,COc1ccc(CCC(=O)N2CCCC(Nc3ccc(C)c(C)c3)C2)cc1OC (stereo not drawn),8.21
9,O=C(CNC(=O)c1ccccc1Br)N/N=C/c1cc(Br)ccc1O,18.4
10,COc1ccc(CNC(=O)CN2C(=O)NC(Cc3ccccc3)(c3ccccc3)C2=O)cc1OC (stereo not drawn),6.6
11,COc1ccc(C(=O)Nc2nnc(SCC(=O)NCc3ccco3)s2)c(OC)c1,8.14
12,CCCCN(C(=O)C1CCCO1)c1c(N)n(CC(C)C)c(=O)[nH]c1=O (stereo not drawn),3.99
13,COc1ccccc1CN1C[C@@H]2C[C@@H](c3[nH]c4ccc(C)cc4c3C)N3CCC[C@@]23C1=O,-1.1
14,COc1ccc(CN2C(=O)c3ccccc3C2OC)cc1 (stereo not drawn),9.37
15,Cc1nn(CCCC(=O)Nc2ccccn2)c(C)c1[N+](=O)[O-],13.2
16,COc1ccc(Cl)cc1C(=O)Nc1ccc(N(C)C(C)=O)cc1,8.38
17,CNc1ccc(S(=O)(=O)NCC(=O)OCC(=O)Nc2cccc(Cl)c2Cl)cc1[N+](=O)[O-],5.7
18,COc1ccc(C(=O)NCc2nnc(SCC(=O)N3CCc4ccccc43)n2CCc2ccccc2)cc1,7.17
19,COc1ccc(N(CC(=O)Nc2ccccc2C(=O)N2CCOCC2)S(=O)(=O)c2ccc(F)cc2)cc1,-4.22
20,Cc1cccn2c(CN3CCCN(C=O)CC3)c(C(=O)N(C)CCc3ccccc3)nc12,15.7
21,CCOCCCNC(=O)C(c1ccc(OC)cc1)N(Cc1ccc2c(c1)OCO2)C(=O)c1ccccn1 (stereo not drawn),9.53
22,CC(=O)Oc1ccc(C2OC(=O)c3ccccc3N2C(C)=O)cc1 (stereo not drawn),-3.42
23,O=C(Oc1ccc(O)cc1)C12CC3CC(CC(C3)C1)C2,8.7
24,O=C(CN(CCc1ccccc1)C(=O)CN1C(=O)COc2ccccc21)NCc1ccco1,-10.8
25,CCOc1cc(/C=N/NC(N)=O)ccc1OC(=O)c1ccc(C)cc1,8.88
26,COc1ccc(-c2cc(C(=O)Nc3cccc(Cl)c3)no2)cc1,20.5
27,Cc1c(S(=O)(=O)N2CCN(c3ccc(F)cc3)CC2)c(=O)n(C)c(=O)n1C,4.2

row,Structure (SMILES),"hERG current change (%, negative = inhibition) at 1uM [%]"
1,CC(C)(C)NC(=O)CN(C(=O)CCC(=O)Nc1nccs1)c1ccc(F)c(Cl)c1,0.866
2,Cc1cc(C(=O)NC2CCCCC2)c(C)o1,3.71
3,O=C(CCN1C(=O)C2CCCCC2C1=O)Nc1ccc(Br)cc1F (stereo not drawn),13.1
4,Cc1nn(CC(=O)NC(C)CCc2ccccc2)c(=O)c2nn(-c3ccccc3)c(C)c12 (stereo not drawn),20.7
5,O=C(c1ccccc1)[C@H]1[C@H](c2ccccc2)[C@@]2(N=C(c3ccccc3)OC2=O)C2c3ccccc3C=NN21 (stereo partly drawn),15.7
6,COc1cc(Cl)c(C)cc1NC(=O)CSc1nnc(CCC(=O)O)c(=O)[nH]1,13.2
7,CN=C1CC(SC)=C1c1ccc(C)cc1,9.36
8,Cc1cccc(C)c1Nc1ncnc2ccccc12.Cl,20
9,Brc1cc2c(cc1C1Nc3ccccc3C3C=CCC31)OCO2 (stereo not drawn),12.6
10,Cc1nc(SCC(=O)c2cccs2)c2oc3ccccc3c2n1,13.3
11,COc1ccc(CC(NC(C)=O)C(=O)NC2CCN(c3nnnn3-c3ccccc3)CC2)cc1OC (stereo not drawn),1.05
12,COc1cc(SSc2cc(OC)cc([N+](=O)[O-])c2N)c(N)c([N+](=O)[O-])c1,2.25
13,CCC(C)NC(=O)CSc1ccc(Cl)cc1 (stereo not drawn),16.8
14,Cc1ccc(S(=O)(=O)Cn2nnnc2CN2CCN(Cc3ccc4c(c3)OCO4)CC2)cc1,-8.32
15,Cn1c(CC(=O)Nc2ccccc2F)nnc1SCC(=O)NC1=NCCS1,23.4
16,CC(OC(=O)Cc1c[nH]c2ccccc12)C(=O)Nc1ccc(S(N)(=O)=O)cc1 (stereo not drawn),5.96
17,Cc1ccc(Nc2nc(Cl)c(C=O)s2)cc1Cl,11
18,CC(C)N(C(=O)c1ccccc1-c1ccccc1)C(C)C,4.93
19,CC(C(=O)Nc1ccc(C(=O)O)c(O)c1)N1C(=O)/C(=C\c2ccco2)SC1=S (stereo not drawn),15.2
20,Cc1cc(NC(=O)Cn2c(=O)n(Cc3ccccc3)c(=O)c3ccccc32)no1,10.1
21,O=C(Cn1nc(-c2cccc(Cl)c2)ccc1=O)NCC1COCCO1 (stereo not drawn),6.67
22,CCc1cccc(NS(=O)(=O)c2c(C)nc3scc(C)n3c2=O)c1,17.3
23,Cc1ccc(C(CCN(Cc2ccccc2)C(=O)c2ccco2)c2ccco2)cc1 (stereo not drawn),9.64
24,Cc1ccc(S(=O)(=O)N(C)c2ccccc2C(=O)N2CCOCC2)cc1,6.45
25,C=CCn1c(=S)[nH]c2sc3c(c2c1=O)CCCC3,12.8
26,CCc1cc(CNC(=O)c2ccc3nc(Cc4ccc(OC)c(OC)c4)oc3c2)on1,2.96
27,CCCc1cc(C(=O)O)c2ccccc2n1,-0.521
